Measured values reported in PubChem BioAssay AID504333 (National Center for Advancing Translational Sciences (NCATS), 2011).
Screen size: about 360,000 compounds; about 16,000 (4.4%) were called active. The shares of active, inactive and inconclusive entries below differ from those in the screen. Calls follow the shape of the dose curve; as a rule, active = well fitted inhibition curve with a large enough effect; inconclusive = small, poorly fitted or top-dose-only effect; inactive = no such curve, though single readings can be large or run the other way. Where the call is inconclusive, the potency comes from a doubtful curve fit.

Target: Bromodomain adjacent to zinc finger domain protein 2B (Homo sapiens) (UniProt Q9UIF8)
Experiment: qHTS Assay for Inhibitors of BAZ2B; also: nearly all actives have a fitted effect of over 60% in size
Conditions: AlphaScreen BAZ2B-H3K14Ac peptide displacement; activity change, negative = inhibition: at 114 µM (top of the series) unless noted
Procedure, shortened: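 Compounds, titrated to a top concentration of 110 uM, were incubated 30 min at room temperature with preformed BAZ2B/acetyl-K14 H3 peptide complex (50 nM each). Proximity signal was measured by AlphaScreen after 20 min with beads.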
% is scaled to controls: 0 for no effect and ±100 for the full control effect; potency is read from the fitted curve at half-maximal effect; tags tell the direction and shape of the fitted curve.

UniProt Q9UIF8, sequence (Q9UIF8 whole entry, looked up, the tested form may be a part): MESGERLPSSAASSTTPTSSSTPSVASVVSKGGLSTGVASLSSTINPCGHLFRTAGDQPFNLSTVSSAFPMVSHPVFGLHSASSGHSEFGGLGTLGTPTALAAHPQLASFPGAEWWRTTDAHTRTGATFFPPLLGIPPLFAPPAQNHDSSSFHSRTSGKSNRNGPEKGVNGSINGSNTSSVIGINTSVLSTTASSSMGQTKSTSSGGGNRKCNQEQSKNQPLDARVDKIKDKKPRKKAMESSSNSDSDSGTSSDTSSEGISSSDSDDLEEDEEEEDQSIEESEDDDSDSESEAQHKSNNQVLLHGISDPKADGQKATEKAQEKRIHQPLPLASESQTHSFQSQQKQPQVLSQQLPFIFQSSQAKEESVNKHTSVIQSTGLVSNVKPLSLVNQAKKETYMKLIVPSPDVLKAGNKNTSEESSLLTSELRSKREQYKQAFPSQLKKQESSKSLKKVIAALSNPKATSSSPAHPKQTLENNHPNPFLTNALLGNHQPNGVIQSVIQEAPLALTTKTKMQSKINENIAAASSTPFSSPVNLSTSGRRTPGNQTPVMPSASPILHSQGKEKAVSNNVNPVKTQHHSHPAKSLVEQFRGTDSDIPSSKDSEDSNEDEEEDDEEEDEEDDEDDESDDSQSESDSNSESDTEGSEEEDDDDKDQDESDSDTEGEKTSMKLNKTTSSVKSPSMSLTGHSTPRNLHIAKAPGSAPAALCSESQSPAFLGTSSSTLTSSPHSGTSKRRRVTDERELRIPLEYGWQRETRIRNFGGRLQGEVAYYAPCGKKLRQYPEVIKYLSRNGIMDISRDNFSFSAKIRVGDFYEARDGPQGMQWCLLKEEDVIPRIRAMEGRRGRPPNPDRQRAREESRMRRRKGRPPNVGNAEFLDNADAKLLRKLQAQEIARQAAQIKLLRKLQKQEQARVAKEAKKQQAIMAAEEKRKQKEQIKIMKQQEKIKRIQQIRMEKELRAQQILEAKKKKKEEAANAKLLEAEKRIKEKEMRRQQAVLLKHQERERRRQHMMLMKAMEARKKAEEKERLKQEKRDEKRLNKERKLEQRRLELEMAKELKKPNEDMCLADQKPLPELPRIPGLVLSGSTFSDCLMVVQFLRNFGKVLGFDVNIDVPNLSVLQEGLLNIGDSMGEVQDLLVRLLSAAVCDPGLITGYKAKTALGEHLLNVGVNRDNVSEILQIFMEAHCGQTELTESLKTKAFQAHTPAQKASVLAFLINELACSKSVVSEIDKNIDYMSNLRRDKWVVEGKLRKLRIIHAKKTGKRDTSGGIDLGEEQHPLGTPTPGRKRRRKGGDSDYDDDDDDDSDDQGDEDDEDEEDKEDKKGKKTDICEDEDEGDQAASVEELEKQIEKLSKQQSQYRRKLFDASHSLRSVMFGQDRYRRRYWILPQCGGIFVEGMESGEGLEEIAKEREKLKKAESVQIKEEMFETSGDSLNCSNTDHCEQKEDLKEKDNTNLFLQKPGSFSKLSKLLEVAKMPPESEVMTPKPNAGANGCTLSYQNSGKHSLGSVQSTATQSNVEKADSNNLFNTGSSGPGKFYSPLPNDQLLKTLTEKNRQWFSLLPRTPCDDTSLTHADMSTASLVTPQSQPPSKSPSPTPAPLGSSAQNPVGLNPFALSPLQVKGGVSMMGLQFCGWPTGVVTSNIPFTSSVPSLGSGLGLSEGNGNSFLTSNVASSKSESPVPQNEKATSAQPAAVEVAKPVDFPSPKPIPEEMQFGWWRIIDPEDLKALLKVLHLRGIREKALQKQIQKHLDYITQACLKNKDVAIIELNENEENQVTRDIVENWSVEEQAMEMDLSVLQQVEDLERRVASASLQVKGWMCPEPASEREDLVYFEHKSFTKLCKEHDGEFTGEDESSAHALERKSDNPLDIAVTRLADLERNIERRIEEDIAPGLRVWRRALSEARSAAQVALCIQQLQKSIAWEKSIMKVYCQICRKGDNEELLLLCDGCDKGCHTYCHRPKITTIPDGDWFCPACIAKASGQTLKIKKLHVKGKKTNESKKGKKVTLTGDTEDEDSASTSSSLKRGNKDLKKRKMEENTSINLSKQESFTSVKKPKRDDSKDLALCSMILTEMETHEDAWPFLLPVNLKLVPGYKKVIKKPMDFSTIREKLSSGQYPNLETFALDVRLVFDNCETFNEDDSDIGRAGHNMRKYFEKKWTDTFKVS

| SMILES | activity change, negative = inhibition | Potency |
| --- | --- | --- |
| Cc1ccc(C)c(NC(=O)C2CCCN(S(=O)(=O)c3c(C)nn(C)c3C)C2)c1 (stereo unspecified) | inactive: 0.47% |  |
| N#Cc1ccccc1NC(=O)CSc1ccc([N+](=O)[O-])cn1 | inactive: 0.574% |  |
| N#CC1=C(N)SC(N)=C(C#N)C1c1cccc(O)c1 |  | inconclusive: 89.1 µM [inhibitor, single point] |
| COCCCNC(=O)CSc1nc2cc3c(cc2c(=O)n1CCCCCC(=O)NCc1ccc(OC)cc1)OCO3 | inactive: -2.05% |  |
| C=CCn1c(=N)n(CC(=O)c2cccc([N+](=O)[O-])c2)c2ccccc21 |  | inconclusive: 79.4 µM [inhibitor, single point] |
| Cc1ccc(C2=Nc3cccnc3C(c3ccccc3)=NN2)cc1 |  | inconclusive: 31.6 µM [inhibitor, partial curve] |
| Cc1ccc(NC(=O)NC(=O)CN2CCN(c3ccc(O)cc3)CC2)c(C)c1 |  | inconclusive: 39.8 µM [inhibitor, partial curve] |
| O=C(CCCn1c(=S)[nH]c2ccccc2c1=O)N1CCOCC1 |  | inconclusive: 89.1 µM [inhibitor, single point] |
| Cc1ccc(S(=O)(=O)NCc2ccccn2)c(C)c1 |  | inconclusive: 89.1 µM [inhibitor, single point] |
| CC(C)Oc1cccc(C(=O)NC(=S)N2CCN(c3ccc(C(F)(F)F)cc3[N+](=O)[O-])CC2)c1 |  | inconclusive: 10 µM [inhibitor, full curve] |
| CCOc1ccccc1N=Nc1c(C)[nH]n(-c2ccccc2)c1=O |  | inconclusive: 3.55 µM [inhibitor, full curve] |
| COc1ccc(/C=N/Nc2cc(N3CCCC3)nc(N3CCCC3)n2)cc1 |  | inconclusive: 14.1 µM [inhibitor, full curve] |
| CC1CCN(c2oc(-c3ccc(F)cc3)nc2C#N)CC1 |  | inconclusive: 12.6 µM [inhibitor, partial curve] |
| COc1ccc(-n2nc([N+](=O)[O-])c(=NCCc3ccc(C)cc3)n2O)cc1 |  | inconclusive: 17.8 µM [inhibitor, full curve] |
| CCOC(=O)c1ccc(NC(=O)CSc2nc(C)cc(=O)[nH]2)cc1 |  | active: 50.1 µM |
| COc1ccc(NC(=O)c2cc3n(n2)C(C(F)(F)F)CC(c2ccc4c(c2)OCO4)N3)cc1OC (stereo unspecified) |  | inconclusive: 70.8 µM [inhibitor, single point] |
| CN(C(=O)CSc1nnc(-c2ccc(F)cc2)c2ccccc12)C1CCS(=O)(=O)C1 (stereo unspecified) |  | inconclusive: 79.4 µM [inhibitor, single point] |
| CCOc1ccc(C(=O)c2cn(CC(=O)Nc3ccc4c(c3)OCCO4)c3ccc(F)cc3c2=O)cc1 | inactive: -1.02% |  |
| O=C(CCCCCN1C(=O)c2ccccc2C1=O)Oc1ccc2c3c(c(=O)oc2c1)CCC3 | inactive: 2.03% |  |
| S=C(NCC1CCCO1)N1CCN(c2nc(-c3ccc(Cl)cc3)cs2)CC1 (stereo unspecified) |  | active: 35.5 µM |
| COc1cccc(C(=O)NC(=NCCc2c[nH]c3ccc(OC)cc23)Nc2nc(C)cc(C)n2)c1 |  | inconclusive: 22.4 µM [inhibitor, full curve] |
| CCN1C(C(=O)c2ccccc2)=C(OC(=O)COc2ccc(OC)cc2)c2ccccc2S1(=O)=O |  | inconclusive: 79.4 µM [inhibitor, single point] |
| O=C(Nc1ccc(-c2nc3ccccc3o2)c(O)c1)c1cc(-n2cnnc2)ccc1Cl | inactive: -5.17% |  |
| CCOc1ccc(CN(C)CC(=O)Nc2ccccc2C(=O)NC2CC2)cc1 | inactive: 0.889% |  |

| SMILES | activity change, negative = inhibition | Potency |
| --- | --- | --- |
| COc1ccc(Cn2c(SCc3cc(C)ccc3C)nc3cc(OC)c(OC)cc3c2=N)cc1 |  | inconclusive: 63.1 µM [inhibitor, partial curve, poor fit] |
| NC(=O)C1CCN(c2oc(/C=C/c3ccc(F)cc3)nc2S(=O)(=O)c2ccccc2)CC1 |  | inconclusive: 50.1 µM [inhibitor, partial curve] |
| CN1CCc2nc3ccccc3c(C(=O)OCC(=O)N(CCC#N)c3ccccc3)c2C1 |  | inconclusive: 89.1 µM [inhibitor, single point] |
| O=C(COC(=O)C1CCCCC1)Nc1ccc([N+](=O)[O-])cc1 |  | inconclusive: 79.4 µM [inhibitor, single point] |
| CC(=O)c1c(C)[nH]c(-c2ccccc2)c1C |  | active: 50.1 µM |
| COC(=O)C1(C)CCc2cc(OC)ccc2C1=O (stereo unspecified) | inactive: -3.98% |  |
| c1ccc(-c2nnc(CN3CCCCC3)o2)cc1 | inactive: -7.93% |  |
| O=C(N/N=C/c1cc(Br)ccc1O)C(=O)Nc1ccccc1OC(F)(F)C(F)F |  | inconclusive: 89.1 µM [inhibitor, single point] |
| CCCCN(C(=O)c1cc2c(s1)CCC2)c1c(N)n(CC(C)C)c(=O)[nH]c1=O |  | inconclusive: 89.1 µM [inhibitor, single point] |
| CCN(CC)CCn1c2ccc(Cl)cc2c2nc(C)sc21 |  | inconclusive: 89.1 µM [inhibitor, single point] |
| CC(C)[C@H](NC(=O)C1CCN(S(=O)(=O)c2ccccc2)CC1)C(=O)NCc1ccc(F)cc1 | inactive: -7.5% |  |
| Cc1ccc(NC(=O)COc2coc(CN3CCc4ccccc43)cc2=O)cc1Cl |  | active: 50.1 µM |
| c1ccc(N2CCN(c3nc(NCc4ccco4)c4ccccc4n3)CC2)cc1 |  | active: 44.7 µM |
| COc1ccc(CN(C)CC(=O)Nc2cccc3ccccc23)cc1F | inactive: 1.42% |  |
| Cc1ccc(NC(=O)c2oc3ccccc3c2NC(=O)c2ccc(F)c(F)c2)cc1 | inactive: 1.2% |  |
| CN1C(=O)/C(=C2\SC(=S)N(NC(=O)c3cccnc3)C2=O)c2ccccc21 |  | inconclusive: 79.4 µM [inhibitor, single point] |
| CCCCCCNC(=O)c1c(O)c2cccc3c2n(c1=O)CCC3 | inactive: 29.6% |  |
| O=C(Nc1cc(Cl)cc(Cl)c1)c1coc(=O)c(Br)c1 |  | active: 56.2 µM |
| O=C(CCS(=O)(=O)c1ccc(Br)cc1)NCc1ccco1 |  | active: 50.1 µM |
| COc1ccc(C(=O)NC(=S)N2CCC(C)CC2)cc1Br |  | inconclusive: 50.1 µM [inhibitor, partial curve] |
| COc1ccc(S(=O)(=O)N2CN(Cc3ccco3)c3nc4ccccc4nc32)cc1 |  | inconclusive: 79.4 µM [inhibitor, single point] |
| O=C(CCN1C(=O)/C(=C/c2ccccc2Cl)SC1=S)NC1C=CS(=O)(=O)C1 (stereo unspecified) |  | inconclusive: 70.8 µM [inhibitor, single point] |
| O=C1c2ccccc2C(=O)c2cc(S(=O)(=O)Nc3ccccc3)ccc21 |  | active: 11.2 µM |
| CCCSc1nc(NCc2ccco2)c2c3c(sc2n1)COC(C)(C)C3 |  | inconclusive: 79.4 µM [inhibitor, single point] |

| SMILES | activity change, negative = inhibition | Potency |
| --- | --- | --- |
| O=C(C1CCC(Cn2c(=O)c3sccc3n(Cc3ccccc3)c2=O)CC1)N1CCCCC1 (stereo unspecified) | inactive: -10.3% |  |
| Cc1cc(=O)oc(C)c1C(=O)NCC1COc2ccccc2O1 (stereo unspecified) |  | inconclusive: 89.1 µM [inhibitor, single point] |
| CCN(Cc1ccccc1)Cc1c(O)ccc2c(=O)c(-c3ccc(Cl)cc3)coc12 | inactive: 3.68% |  |
| CCOC(=O)c1nn2c(C(F)(F)F)cc(-c3ccc(OC)cc3)nc2c1Br |  | inconclusive: 100 µM [inhibitor, single point] |
| COc1ccc(C(=O)COC(=O)c2ccc(Cl)nc2)c(OC)c1 |  | active: 79.4 µM |
| Cc1ccc(NC(=O)CCC(=O)c2ccc(Cl)s2)nc1 |  | active: 56.2 µM |
| CS(=O)(=O)N(CC(=O)N1CCc2ccccc2C1)Cc1ccc(F)cc1 | inactive: 1.24% |  |
| N#Cc1nc(COc2cccc(Cl)c2)oc1NCCc1ccccc1 |  | inconclusive: 28.2 µM [inhibitor, partial curve] |
| Cc1ccc(NC(=O)Cn2c(=O)n(Cc3nc(C)no3)c(=O)c3cc4c(cc32)OCO4)c(C)c1 | inactive: -15.8% |  |
| O=C(O)c1cc(-c2ccco2)nn1-c1cccc(Cl)c1 |  | active: 50.1 µM |
| Cc1n[nH]c(=O)c2c(NC(=O)COC(=O)Cc3c(F)cccc3Cl)oc(C)c12 | inactive: -3.23% |  |
| Cc1cc(C)c(S(=O)(=O)Nc2ccc(-c3cn4ccccc4n3)cc2)c(C)c1 |  | inconclusive: 44.7 µM [inhibitor, partial curve] |
| COc1ccc(C(=O)Nc2nc3n(n2)C(c2ccccc2)C=C(c2ccccc2)N3)cc1 (stereo unspecified) |  | active: 22.4 µM |
| CCc1ccc(OCCNc2cc(N3CCNC(C)C3)ccc2[N+](=O)[O-])cc1 (stereo unspecified) |  | active: 35.5 µM |
| Cc1[nH]n(-c2ncc(-c3ccc(Cl)cc3)s2)c(=O)c1C(c1ccc(Cl)cc1)C(C#N)C#N (stereo unspecified) |  | inconclusive: 22.4 µM [inhibitor, full curve] |
| CS(=O)(=O)c1ccccc1C(=O)N(CCC1=CCCCC1)c1c(N)n(Cc2ccccc2)c(=O)[nH]c1=O | inactive: -4.6% |  |
| O=c1[nH]c(C2CCCN(S(=O)(=O)c3ccccc3Cl)C2)nc2c1nnn2Cc1ccc2c(c1)OCCO2 (stereo unspecified) |  | inconclusive: 89.1 µM [inhibitor, single point] |
| c1ccc(-c2ccc(C3=Nn4c(nnc4-c4cc(-c5ccccc5)n[nH]4)SC3)cc2)cc1 | inactive: 0.405% |  |
| CCOc1ccc(N(CC(=O)N2CCN(Cc3ccccc3)CC2)S(C)(=O)=O)cc1 |  | inconclusive: 89.1 µM [inhibitor, single point] |
| O=C(Nc1ccc(N2CCOCC2)cc1)c1cn2ccccc2n1 |  | inconclusive: 100 µM [inhibitor, single point] |
| Cc1ccc(CC(=O)Nc2ccc3c(c2)N(C)C(=O)c2ccccc2S3)cc1 |  | inconclusive: 79.4 µM [inhibitor, single point] |
| COCCn1c(C)cc(C(=O)COc2ccc(C)nc2[N+](=O)[O-])c1C |  | inconclusive: 50.1 µM [inhibitor, partial curve] |
| Cc1ccccc1C(=O)Nc1sc2c(c1C(=O)N1CCCCC1)CCC(C)C2 (stereo unspecified) |  | inconclusive: 70.8 µM [inhibitor, single point] |
